# Source: PubChem BioAssay AID624296 (National Center for Advancing Translational Sciences (NCATS), 2012)
# Hit rate of the full screen: of about 350,000 compounds, about 9,900 (2.8%) were called active. The inconclusive results got no clear call from the source; some entries with a clear call stand among them for comparison. Calls come from the whole dose curve; as a rule, active = well fitted activation curve with a large enough effect; inconclusive = small, poorly fitted or top-dose-only effect; inactive = no such curve, though single readings can be large or run the other way. Potencies of inconclusive entries are left out as doubtful fits.
# Assay: A quantitative high throughput screen for small molecules that induce DNA re-replication in MCF 10a normal breast cells. For activity, positive = re-replication: % of control where 0% means no effect. Note: nearly all actives have a fitted effect of over 50% in size.
# Settings: MCF 10A DNA re-replication, Hoechst nuclear intensity, 48 h; activity, positive = re-replication: at 46.1 µM (top of the series)
# Potency is the fitted concentration of half-maximal effect; tags give direction and shape of the fitted curve.
Compound,Potency,"activity, positive = re-replication"
Cc1ccc(C2(c3ccc(C)cc3)CC2C(=O)Nc2ccc([N+](=O)[O-])cc2O)cc1 (stereo unspecified),"inconclusive [activator, full curve, poor fit]",
O=C(C1CCN(S(=O)(=O)N2CCC3(CC2)OCCO3)CC1)N1CCN(Cc2ccccc2)CC1,"inconclusive [activator, partial curve, poor fit]",
Brc1ccccc1/C=N/Nc1ccc2ccccc2n1,active: 16.4 µM,
CC(=O)NCCc1nc2ccccc2n1CCOc1ccccc1,,inactive: -1.12%
COc1ccc(C2C(C(=O)NC(C)C)c3ccccc3C(=O)N2C)cc1OC (stereo unspecified),,inactive: -0.263%
CC(SCc1cc(=O)n2c([nH]c3ccccc32)c1C#N)C(=O)O (stereo unspecified),,inactive: -2.02%
CCCn1c(SCC(=O)Nc2sc(C)c(C)c2C#N)nnc1C(C)C,,inactive: 25.8%
COc1ccccc1N1CCN(S(=O)(=O)c2c(C(=O)N3CCOCC3)c(C)n(C)c2C)CC1,"inconclusive [activator, single point]",
Cc1ccccc1OCC(=O)Nc1cccc(N(C)S(C)(=O)=O)c1,,inactive: 3.79%
COc1ccccc1-c1c(C(F)(F)F)oc2cc(OC(=O)c3cccc([N+](=O)[O-])c3C)ccc2c1=O,"inconclusive [activator, single point]",
CCOc1ccc2nc(NC(=S)NCc3ccccc3)sc2c1,,inactive: 21.6%
O=C(CSc1ccccc1F)NNC(=O)c1ccncc1,,inactive: -5.98%
CCc1ccc(N2CC(O)(c3cccs3)[N+]3=C2SCCC3)cc1 (stereo unspecified),"inconclusive [activator, partial curve, poor fit]",
CCCCNc1nc(=S)n(-c2ccccc2)c(C)c1C(C)=O,"inconclusive [activator, single point]",
O=C(C(=O)N1CCCc2ccccc21)c1cn(CC(=O)N2CCOCC2)c2ccccc12,"inconclusive [activator, single point]",
CCOC(=O)Cn1cc(Cl)c(=O)c(Cl)c1,,inactive: 7.88%
S=C(NCCc1ccccc1)N1CCN(C23CC4CC(CC(C4)C2)C3)CC1,active: 5.8 µM,
O=C(OCc1ccccc1)c1cccc(-c2nnn(Cc3ccccc3)n2)c1,,inactive: 3.81%

Compound,Potency,"activity, positive = re-replication"
COc1ccc(C(C)=O)cc1CC(=O)NC1CCCCCC1,,inactive: -7.75%
CCOc1cc(NC(=O)c2ccccn2)c(OCC)cc1NC(=O)c1ccc(Cl)cc1,,inactive: 1.74%
Cc1ccnc(Nc2nc(-c3c(C)nc4sccn34)cs2)c1,"inconclusive [activator, partial curve, poor fit]",
COc1ccc(CSCC(=O)N/N=C/c2ccc(OCC(=O)NCc3ccco3)cc2)cc1,"inconclusive [activator, single point]",
CCOC(=O)C1=C(c2ccccc2)N=C2SCC(=O)N2C1c1ccc(OCC)c(OCC)c1 (stereo unspecified),"inconclusive [activator, partial curve, poor fit]",
Cc1ccc(NC(=S)NCc2cccs2)cc1,,inactive: 11.5%
COC(=O)c1ccccc1NC(=S)NC(=O)c1ccccc1C,"inconclusive [activator, single point]",
CCCCc1c(C)nc(N)[nH]c1=O,"inconclusive [activator, partial curve, poor fit]",
CC1=C(C(=O)OCC(Br)(Br)Br)C(c2ccc(Br)cc2)NC(=O)N1CCCC(=O)O (stereo unspecified),"inconclusive [activator, full curve, poor fit]",
C=CCC1(C#N)C(SC)=NC2=C(C(=O)CC(C)(C)C2)C1c1ccc(Br)cc1 (stereo unspecified),"inconclusive [activator, full curve, poor fit]",
O=C(Nc1ccc(N2CCN(C(=O)c3ccccc3)CC2)c(Cl)c1)c1ccc(Br)o1,"inconclusive [activator, single point]",
NC(=O)c1ncn([C@@H]2O[C@H](CNCc3cccn3-c3ccncc3)[C@@H](O)[C@H]2O)n1,,inactive: 3.2%
CCCc1cc(=O)[nH]c2nnc(SCC(=O)NC3CCCC3)n12,,inactive: -12.7%
CCN(CC)C1=CC(=[N+]2CCCC2)CC(C)(C)C1,,inactive: -0.495%
CCC(C(=O)NCc1ccc(OC)cc1)n1nc(C)n2c(cc3occc32)c1=O (stereo unspecified),"inconclusive [activator, partial curve, poor fit]",
O=C(c1cccs1)N(C(=O)c1cccs1)c1ccc(Br)cn1,"inconclusive [activator, single point]",
Cc1ccc(S(=O)(=O)c2nc(S(C)(=O)=O)sc2N2CCCCC2C)cc1 (stereo unspecified),"inconclusive [activator, single point]",
Cc1ccc(OCCNC(=O)c2cccc(S(=O)(=O)N3CCN(Cc4ccccc4)CC3)c2)cc1,"inconclusive [activator, single point]",
